# Measured values reported in PubChem BioAssay AID493208 (National Center for Advancing Translational Sciences (NCATS), 2011).
# The campaign covered roughly 44,000 compounds. About 340 (0.77%) were called active. About 5% were inconclusive and are not listed. Calls come from the whole dose curve; as a rule, active = well fitted inhibition curve with a large enough effect; inconclusive = small, poorly fitted or top-dose-only effect; inactive = flat fitted curve, though single readings scatter. The list shows a part of the results.
# Test: Acumen qHTS Assay for Inhibitors of the mTORC1 Signaling Pathway in MEF (Tsc2-/-, p53-/-) Cells: Sytravon;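 note: plate controls were DMSO for no effect and rapamycin for full effect; nearly all actives have a fitted effect of over 50% in size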
# Conditions: phospho-rpS6 immunofluorescence/PI, 24 h; series mostly up to 38.3 µM; activity change, negative = inhibition: at the top concentration
# How it was run: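 Compounds act on Tsc2-/-, p53-/- fibroblasts carrying an empty vector for 24 h before fixation and dual staining for phospho-S6 and DNA (propidium iodide). Values are percentages of cells above a rapamycin-defined pS6/PI threshold.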
row,Compound,"activity change, negative = inhibition"
1,O=C(Nc1ccc(C(=O)OCc2cc(=O)n3c4c(sc3n2)CCCC4)cc1)c1ccccc1,inactive: 4.9%
2,CC(=O)c1ccc(NC(=O)c2noc3c2CCc2ccccc2-3)cc1,inactive: 8.16%
3,COc1ccc(C2C(C(N)=O)=C(C)Nc3nc(CCCO)nn32)c(OC)c1 (configuration not stated),inactive: -4.07%
4,COc1ccc(CCNC(=O)c2cnc3ccc(C)cn3c2=O)cc1,inactive: -6.75%
5,CCCS(=O)(=O)c1c(S(=O)(=O)CCC)c2cc(CC)ccn2c1C(=O)c1ccc(OC)cc1,inactive: -0.967%
6,COc1cccc(Cn2nnc(C(=O)Nc3cc(C)ccc3C)c2N)c1,inactive: -8.22%
7,CCOc1ccc(NC(=O)N2CCC(C(N)=O)(N3CCCCC3)CC2)cc1,inactive: -0.014%
8,CCOc1ccccc1CNC(=O)Cn1c(-c2ccccc2)cc(C(C)=O)c1C,inactive: 0.396%
9,O=C(CCc1nc(-c2cccs2)no1)Nc1ccccc1[N+](=O)[O-],inactive: 0.0282%
10,O=C(Cn1c(=O)n(Cc2ccccc2)c(=O)c2sc3ccccc3c21)NCc1ccccc1Cl,inactive: -11.7%
11,O=C(NC1CC(=O)N(c2cccc(F)c2)C1)c1ccc(S(=O)(=O)N2CCCC2)cc1 (configuration not stated),inactive: -11.7%
12,Cc1ccn2c(=O)c(C(=O)NCCc3ccccc3)c(O)nc2c1,inactive: -5.89%
13,Cc1ccc2nc(NC(=O)CSc3nccn3Cc3ccc(Cl)cc3)sc2c1,inactive: 1.81%
14,O=C(Nc1cccc(Cl)c1)N1CCSc2ccccc21,inactive: 0.428%
15,CSc1ccc(CCNC(=O)c2cnn(-c3ccccc3)c2-n2cccc2)cc1,inactive: -1.29%
16,Cc1cccc(NC(=O)c2cc(S(=O)(=O)N3CCc4ccccc43)ccc2F)c1C,inactive: 5.24%
17,COCCCNC(=O)CS(=O)Cc1nc(-c2cccc(C)c2)oc1C (configuration not stated),inactive: 0.863%
18,COc1ccc(OC)c(-c2cc(C(=O)NCCc3ccccc3)c3c(-c4ccc(C)cc4)[nH]nc3n2)c1,inactive: -3.91%
19,CCOC(=O)c1cnc2c(ccc3ccccc32)c1Nc1ccccc1OCC,inactive: 3.82%
20,CC(NC(=O)CCCC1=NS(=O)(=O)c2ccccc2N1)c1ccccc1 (configuration not stated),inactive: 0.596%
21,CCOc1ccccc1NC(=O)c1c(NC(=O)COc2ccccc2)sc2c1CCCCC2,inactive: -3.98%
22,CCCn1cc(S(=O)(=O)c2ccccc2)c(=O)c2cc(F)c(N3CCCCC3)cc21,inactive: -0.086%
23,Cc1ccc(N2C(=O)CSC23C(=O)N(CC(=O)NCCc2ccccc2)c2ccccc23)cc1C (configuration not stated),inactive: 3.05%
24,Cc1ccc(NC(=O)C2CCN(c3nc4ccccc4nc3C(F)(F)F)CC2)cc1F,inactive: 4.54%
25,COc1ccc(C(=O)Nc2nnc(S(=O)(=O)N3CCCCCC3)s2)cc1OC,inactive: 3.86%
26,CCOC(=O)c1cc(-c2ccccc2)n(-c2cccc(C(=O)Nc3cccc(F)c3)c2)c1C,inactive: -0.0302%
27,Cc1ccc(CNC(=O)CCc2c(C)nc3c(c(C)nn3-c3ccccc3)c2C)cc1,inactive: -3.77%
